Experimental data published in paper PMC4336329 (PLoS ONE, 2015).
Screen size: about 310,000 compounds; about 14,000 (4.5%) showed an effect of 50% or more. The effect is printed as a negative number. This is one part of the list.

target: human ether-à-go-go-related gene (hERG) potassium channel (human, UniProt Q12809); assay: primary screen, population patch clamp on CHO cells stably expressing hERG
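Also: peak tail current of the secondary pulse compared with the same well before compound.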

Chain of human ether-à-go-go-related gene (hERG) potassium channel (Q12809 whole entry, looked up): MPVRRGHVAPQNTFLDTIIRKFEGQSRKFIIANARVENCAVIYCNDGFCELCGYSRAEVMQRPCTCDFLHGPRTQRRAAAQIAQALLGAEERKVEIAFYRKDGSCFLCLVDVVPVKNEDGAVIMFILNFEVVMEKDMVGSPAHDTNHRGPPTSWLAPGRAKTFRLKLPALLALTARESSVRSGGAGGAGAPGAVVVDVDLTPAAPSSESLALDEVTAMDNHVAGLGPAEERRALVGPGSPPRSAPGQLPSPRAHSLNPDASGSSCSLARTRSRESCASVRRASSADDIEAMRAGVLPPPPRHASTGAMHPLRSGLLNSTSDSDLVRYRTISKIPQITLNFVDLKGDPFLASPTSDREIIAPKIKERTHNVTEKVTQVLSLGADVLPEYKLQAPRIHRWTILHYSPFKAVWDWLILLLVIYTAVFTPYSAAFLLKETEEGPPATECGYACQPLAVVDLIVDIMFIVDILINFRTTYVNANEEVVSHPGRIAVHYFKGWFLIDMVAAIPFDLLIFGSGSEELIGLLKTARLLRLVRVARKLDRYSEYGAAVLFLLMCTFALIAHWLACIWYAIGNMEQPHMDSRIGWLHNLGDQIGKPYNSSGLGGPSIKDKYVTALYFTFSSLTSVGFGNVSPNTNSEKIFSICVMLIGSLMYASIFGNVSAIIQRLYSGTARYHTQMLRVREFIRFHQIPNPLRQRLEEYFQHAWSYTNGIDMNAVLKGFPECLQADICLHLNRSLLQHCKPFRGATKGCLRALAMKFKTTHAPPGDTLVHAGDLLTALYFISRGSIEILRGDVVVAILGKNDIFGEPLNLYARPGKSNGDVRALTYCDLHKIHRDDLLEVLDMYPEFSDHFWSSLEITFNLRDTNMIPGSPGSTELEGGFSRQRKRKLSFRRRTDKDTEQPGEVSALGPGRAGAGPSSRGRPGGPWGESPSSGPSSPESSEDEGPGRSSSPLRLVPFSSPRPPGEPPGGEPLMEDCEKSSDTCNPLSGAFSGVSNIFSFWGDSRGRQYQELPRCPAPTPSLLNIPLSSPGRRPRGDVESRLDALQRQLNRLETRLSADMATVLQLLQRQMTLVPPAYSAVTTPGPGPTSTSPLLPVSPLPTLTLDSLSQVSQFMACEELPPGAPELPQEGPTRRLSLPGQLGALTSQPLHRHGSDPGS

SMILES	hERG current change (%, negative = inhibition) at 10uM [%]
Cc1ccc(C)c(OCCC(=O)OCC(=O)NCCNC(=O)COC(=O)CCOc2cc(C)ccc2C)c1	4.21
CCOC(=O)c1c(N)nn(C(=O)c2ccccc2F)c1-c1ccc(OC)cc1	3.53
COCCSc1nnc(NC(=O)COC)s1	11.1
Cc1ccc(CSc2nc3c(c(=O)[nH]c(=O)n3C)n2CCC(C)C)cc1	6.82
CS(=O)(=O)N1CCc2cc(S(=O)(=O)Nc3ccc4c(c3)OCCO4)ccc21	-12.7
CC(C)(C)c1ccccc1NC(=O)c1ccco1	5.62
CC1CCc2sc(C(=O)NNC(=S)NCC3CCCO3)cc2C1 (stereo not shown)	-5.76
CCOc1ccc(/C(C)=N/NC(=O)Cn2nc([N+](=O)[O-])cc2C)cc1	4.76
COc1cccc(CNCCc2c[nH]c3ccccc23)c1OC.Cl	-11.1
COc1ccccc1C(=O)N1CCN(S(=O)(=O)c2ccccc2)CC1	-3.1
CCOC(=O)COc1ccc2c(c1)C(=O)CC(C)(c1cccnc1)O2 (stereo not shown)	7.09
O=C1C(CCS(=O)c2ccccc2)C(=O)N(c2ccccc2)N1c1ccccc1 (stereo not shown)	20.8
C#CCn1c(-c2cccs2)nc2ccccc21	-0.381
CC(C)(C)OC(=O)NN=C(c1ccc(O)cc1)c1ccc(O)cc1	22.7
COc1ccc(OC)c(NC(=O)c2ccccc2NS(=O)(=O)c2cccc3cccnc23)c1	-0.0217
CCCCN(C(=O)CNC(=O)c1ccco1)C(C(=O)NC1CCCC1)c1ccc(OC)cc1 (stereo not shown)	-20.1
COC(=O)c1sccc1NC(=O)Cn1cnc2c1c(=O)n(C)c(=O)n2C	0.488
O=S(=O)(c1ccc(Oc2ccc(S(=O)(=O)N3CCOCC3)cc2)cc1)N1CCOCC1	9.29
CS(=O)(=O)N1CCN(c2ccc(NC(=O)c3ccccc3)cc2)CC1	1.23
O=C(CN1CCN(Cc2ccccc2Cl)C1=O)NC1CCCCCCC1	-17.1
Cn1c(C(=O)N[C@@H](Cc2ccccc2)C(=O)O)cc2cc(F)ccc21	25.9
Cl.Cn1c(=O)c2c(ncn2CCCC(=N)N2CCOCC2)n(C)c1=O	16.4

SMILES	hERG current change (%, negative = inhibition) at 10uM [%]
Cc1ccccc1OCC(=O)NCC(=O)N/N=C/c1cccc([N+](=O)[O-])c1	16.5
Cn1c(-c2ccc(F)cc2)cnc1NCc1ccc(C#N)cc1	-73.7
N#Cc1c(NC(=O)CSc2nnnn2C2CCCCC2)sc2c1CCCC2	1.39
Cc1ccc(C(=O)Nc2ccccc2[N+](=O)[O-])cc1S(=O)(=O)N1CCOCC1	-25.2
CCOc1ccccc1-c1nc(CN2CCN(C(=O)c3ccco3)CC2)c(C)o1	-2.01
COc1ccc(NC(=O)c2[nH]ncc2[N+](=O)[O-])cc1	10.6
Cc1cc(NC(=O)CCCN2C(=O)/C(=C/c3ccccc3Cl)SC2=S)no1	-0.189
CCOC(=O)N1CCC(NC(=O)c2cc3c(-c4ccc(OC)c(OC)c4)nn(C)c3s2)CC1	2.98
Oc1ccc2ccc3cccc[n+]3c2c1.[I-]	23.7
COc1cccc(CN(C)CC(=O)Nc2ccccc2C(=O)Nc2ccccc2)c1	18.1
COc1ccc(CNC(=O)CCN2C(=O)c3ccncc3C2=O)cc1OC	13
Clc1ccc(-n2nnnc2SCc2c(-c3ccccc3)nc3sccn23)cc1	-1.43
Cc1ccc(-n2nc3c(=O)n(CC(=O)NCc4cccs4)nc(C)c3c2C)cc1	-20.1
O=C(CNS(=O)(=O)c1ccc(Br)s1)NC1CCCc2ccccc21 (stereo not shown)	-2.79
O=C(Nc1ccon1)c1ccc(S(=O)(=O)N2CCCCCC2)cc1	9.89
CCOc1ccccc1/C=C(\C#N)C1=CCCC1	16.1
CCOc1ccc(NC(=O)NNC(=O)c2ccc(Cl)cc2Cl)cc1	24.1
COc1cc(SC)ccc1C(=O)Nc1cccc(C)n1	-14
CCn1c(SCCN2CCOCC2)nc2c1c(=O)n(C)c(=O)n2C	15.8
CS(=O)(=O)Nc1cc2c3c(c1)CCC(=O)N3CCC2	12
Cc1c(/C=C(\CC(=O)O)c2nc3ccccc3s2)cc(C#N)n1C	10.8
O=C(NCc1cccnc1)C(=O)Nc1cc2c3c(c1)CC(=O)N3CCC2	8.2

SMILES	hERG current change (%, negative = inhibition) at 10uM [%]
CC(=O)c1c(C)n([O-])c2cc(F)c(F)cc2[n+]1=O	29.6
O=C(Nc1ccc2nc(C3CC3)n(Cc3ccc(F)cc3)c(=O)c2c1)c1ccco1	-11.7
CCN(CC)S(=O)(=O)c1cc(NC(=O)NCCCl)ccc1C	-11.7
CC(CC(=O)NNC(=O)c1cccc(Cl)c1)c1ccccc1 (stereo not shown)	4.59
O=C(CN1CCN(S(=O)(=O)c2ccccc2)CC1)NC1CC1	15.3
Cc1onc(-c2ccccc2Cl)c1C(=O)OCC(=O)c1ccccc1	-3.82
Cc1ccc(C)c(OCC(O)CN2CCN(CCN3C(=O)c4cccc5cccc(c45)C3=O)CC2)c1.Cl (stereo not shown)	-67.3
CCn1c(NC(=O)c2cccs2)nc2ccccc21	3.21
COc1ccc2[nH]c(C)c(CCN(Cc3cccs3)C(=S)Nc3ccc(F)cc3)c2c1	2.08
Cc1ccc(C)c(N(CC(=O)NC(C)(C)C)C(=O)CCC(=O)Nc2nccs2)c1	2.56
O=c1[nH]c2cc3c(cc2cc1C(c1nnnn1CC1CCCO1)N1CCCCCC1)OCCO3 (stereo not shown)	-0.134
Cc1sc2nc(C3CC3)nc(SCC(=O)N3CC(=O)Nc4ccccc43)c2c1C	9.57
CC(C)Oc1ccc(S(=O)(=O)N2CCCCC2)cc1NC(=O)CN1CCCC1c1cccs1 (stereo not shown)	15.4
CCC(=O)c1ccc(OCC(=O)OCC(=O)N2CCCc3ccccc32)cc1	12.5
c1ccc(-c2nc(-n3nc4ccccc4n3)nc3ccccc23)cc1	3.21
CN(C)/C=C/C(=O)c1ccc(Br)s1	14.5
COC(=O)CSc1nc(C)cc(C)n1	1.7
CCNc1nc(NCC)n2c(SCC(=O)N3CC4(C)CC3CC(C)(C)C4)nnc2n1 (stereo not shown)	3.01
COC(=O)c1ccc2c(=O)n(CCCCCC(=O)O)c(=O)[nH]c2c1	6.49
CCN1C(=O)N[C@@H](c2cccs2)C(C(C)=O)=C1C	3.96
COc1ccc2c(c1)C1=C(CC2)C(c2ccc(C)cc2)NC(=S)N1 (stereo not shown)	-1.59
COCCNS(=O)(=O)c1ccc2c(c1)C(=NO)c1cc(S(=O)(=O)NCCOC)ccc1-2	0.547

SMILES	hERG current change (%, negative = inhibition) at 10uM [%]
COc1ccccc1N1CCN(C2CCCCC2NS(=O)(=O)c2ccc(Cl)cc2)CC1 (stereo not shown)	-31.5
COc1ccccc1-n1c(SCC(N)=O)nc2sc3c(c2c1=O)CCC3	9.36
O=C(N/N=C/c1cccnc1)C(=O)N1CCCCCC1	19.8
COc1ccc(C(=O)Nc2ccc(C3CC3(Cl)Cl)cc2)cc1 (stereo not shown)	19.6
CC(=O)Nc1ccc(C(=O)Nc2cc(C)on2)cc1	28.7
CC1CN(C(=S)NC(=O)c2cccc([N+](=O)[O-])c2)CC(C)O1 (stereo not shown)	19.9
O=C(COC(=O)c1ccc(F)cc1F)Nc1ccc2[nH]c(=O)[nH]c2c1	10.3
COc1ccc(CNC(=O)C2CCN(c3nn4c(=O)cc(C)nc4s3)CC2)cc1	-4.51
CCN(CC)S(=O)(=O)c1cc(C(=O)OC)ccc1Cl	4.43
Cc1oc(-c2ccc(Cl)cc2)nc1CS(=O)CC(=O)NCc1cccs1 (stereo not shown)	-45
CCC(COC(=O)Nc1cccc(C)c1C)NC(=O)OCC(C)C (stereo not shown)	-21.3
CCOCCn1[nH]c2ccccc2c1=O	6.03
Cc1ccc2nsnc2c1S(=O)(=O)N1CCCC1	-5.75
CC(=O)Nc1ccc(NC(=O)CSc2ccc([N+](=O)[O-])cn2)cc1	11.3
COc1ccc(C(=O)N/C(=C/c2cccs2)C(=O)NCCCn2ccnc2)cc1OC	-7.14
COc1ccc(CCNC(=O)c2ccc([N+](=O)[O-])cc2Cl)cc1OC	-4.77
CCCS(=O)(=O)N1CCN(C(=O)c2cccs2)CC1	1.32
C=CCCC(=O)NC1CC(C)(C)Cc2c1cnn2-c1cccc(F)c1 (stereo not shown)	-68.4
CCN1C(=O)[C@H]2[C@@H](c3ccc(-c4ccc(OC)cc4)cc3)N3CCC[C@@]3(C(=O)OC)[C@H]2C1=O.O=C(O)C(F)(F)F	-1.81
CC(=O)NNc1[nH]c2c(c(=O)c1[N+](=O)[O-])c(=O)n(C)c(=O)n2C	15.8
Cc1cc(=O)oc2cc3c(cc12)OCCO3	18.6
Br.COC(=O)CN1C(C)=Nc2ccc(Br)cc2C1c1ccccc1 (stereo not shown)	-49.1
